Reference: article PMC9911399, “Two distinct binding modes provide the RNA-binding protein RbFox with extraordinary sequence specificity”
Where a chain is given by its changes, count along the chain named. This is one part of the list.

T1: RBFOX1 RRM (Homo sapiens, UniProt Q9NWB1 109-208)
T1 sequence: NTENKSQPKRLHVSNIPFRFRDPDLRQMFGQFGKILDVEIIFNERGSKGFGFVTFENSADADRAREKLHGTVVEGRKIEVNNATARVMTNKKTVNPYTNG

B1: CACGAAC (DNA:RNA)
RNA: GGGAGACCGGAAUUCAGAUUGUCCCACGAACUUAAAUCCCGUCGUAGCCACCA
DNA 1: CAATCTGAATTCCGGTCTCCC
DNA 2: TGGTGGCTACGACGGGATT
B2: ACGCAGA (DNA:RNA)
RNA: B1 RNA with C25A, A26C, C27G, G28C, A30G, C31A
DNA 1: CAATCTGAATTCCGGTCTCCC
DNA 2: TGGTGGCTACGACGGGATT
B3: UUGCGGG (DNA:RNA)
RNA: GGGAGACCGGAAUUCAGAUUGUCCUUGCGGGUUAAAUCCCGUCGUAGCCACCA
DNA 1: CAATCTGAATTCCGGTCTCCC
DNA 2: TGGTGGCTACGACGGGATT
B4: GUUACUA (DNA:RNA)
RNA: B3 RNA with U25G, G27U, C28A, G29C, G30U, G31A
DNA 1: CAATCTGAATTCCGGTCTCCC
DNA 2: TGGTGGCTACGACGGGATT
B5: AAGGCUC (DNA:RNA)
RNA: B1 RNA with C25A, C27G, A29C, A30U
DNA 1: CAATCTGAATTCCGGTCTCCC
DNA 2: TGGTGGCTACGACGGGATT
B6: UUUUUAC (DNA:RNA)
RNA: B1 RNA with C25U, A26U, C27U, G28U, A29U
DNA 1: CAATCTGAATTCCGGTCTCCC
DNA 2: TGGTGGCTACGACGGGATT
B7: GCGCAUU (DNA:RNA)
RNA: B3 RNA with U25G, U26C, G29A, G30U, G31U
DNA 1: CAATCTGAATTCCGGTCTCCC
DNA 2: TGGTGGCTACGACGGGATT
B8: GAUCUGU (DNA:RNA)
RNA: B3 RNA with U25G, U26A, G27U, G29U, G31U
DNA 1: CAATCTGAATTCCGGTCTCCC
DNA 2: TGGTGGCTACGACGGGATT
B9: UUAAUUU (DNA:RNA)
RNA: B3 RNA with G27A, C28A, G29U, G30U, G31U
DNA 1: CAATCTGAATTCCGGTCTCCC
DNA 2: TGGTGGCTACGACGGGATT
B10: CAAGUGG (DNA:RNA)
RNA: B1 RNA with C27A, A29U, A30G, C31G
DNA 1: CAATCTGAATTCCGGTCTCCC
DNA 2: TGGTGGCTACGACGGGATT
B11: CGGGCAG (DNA:RNA)
RNA: B1 RNA with A26G, C27G, A29C, C31G
DNA 1: CAATCTGAATTCCGGTCTCCC
DNA 2: TGGTGGCTACGACGGGATT
B12: UUGUGGG (DNA:RNA)
RNA: B3 RNA with C28U
DNA 1: CAATCTGAATTCCGGTCTCCC
DNA 2: TGGTGGCTACGACGGGATT
B13: GCAAGGA (DNA:RNA)
RNA: B3 RNA with U25G, U26C, G27A, C28A, G31A
DNA 1: CAATCTGAATTCCGGTCTCCC
DNA 2: TGGTGGCTACGACGGGATT
B14: GUAUUCU (DNA:RNA)
RNA: B3 RNA with U25G, G27A, C28U, G29U, G30C, G31U
DNA 1: CAATCTGAATTCCGGTCTCCC
DNA 2: TGGTGGCTACGACGGGATT
B15: GGUAAGC (DNA:RNA)
RNA: B1 RNA with C25G, A26G, C27U, G28A, A30G
DNA 1: CAATCTGAATTCCGGTCTCCC
DNA 2: TGGTGGCTACGACGGGATT
B16: CGGGAGC (DNA:RNA)
RNA: B1 RNA with A26G, C27G, A30G
DNA 1: CAATCTGAATTCCGGTCTCCC
DNA 2: TGGTGGCTACGACGGGATT
B17: AAUUACC (DNA:RNA)
RNA: B1 RNA with C25A, C27U, G28U, A30C
DNA 1: CAATCTGAATTCCGGTCTCCC
DNA 2: TGGTGGCTACGACGGGATT
B18: CCUUGGC (DNA:RNA)
RNA: B1 RNA with A26C, C27U, G28U, A29G, A30G
DNA 1: CAATCTGAATTCCGGTCTCCC
DNA 2: TGGTGGCTACGACGGGATT
B19: GACGUUC (DNA:RNA)
RNA: B1 RNA with C25G, A29U, A30U
DNA 1: CAATCTGAATTCCGGTCTCCC
DNA 2: TGGTGGCTACGACGGGATT
B20: GAACGUC (DNA:RNA)
RNA: B1 RNA with C25G, C27A, G28C, A29G, A30U
DNA 1: CAATCTGAATTCCGGTCTCCC
DNA 2: TGGTGGCTACGACGGGATT
B21: AGUCAGG (DNA:RNA)
RNA: B3 RNA with U25A, U26G, G27U, G29A
DNA 1: CAATCTGAATTCCGGTCTCCC
DNA 2: TGGTGGCTACGACGGGATT
B22: UCUUACC (DNA:RNA)
RNA: B1 RNA with C25U, A26C, C27U, G28U, A30C
DNA 1: CAATCTGAATTCCGGTCTCCC
DNA 2: TGGTGGCTACGACGGGATT
B23: CGCGUCC (DNA:RNA)
RNA: B1 RNA with A26G, A29U, A30C
DNA 1: CAATCTGAATTCCGGTCTCCC
DNA 2: TGGTGGCTACGACGGGATT
B24: CAUCAUA (DNA:RNA)
RNA: B1 RNA with C27U, G28C, A30U, C31A
DNA 1: CAATCTGAATTCCGGTCTCCC
DNA 2: TGGTGGCTACGACGGGATT
B25: GAGCCGC (DNA:RNA)
RNA: B3 RNA with U25G, U26A, G29C, G31C
DNA 1: CAATCTGAATTCCGGTCTCCC
DNA 2: TGGTGGCTACGACGGGATT
B26: CUACACA (DNA:RNA)
RNA: B1 RNA with A26U, C27A, G28C, A30C, C31A
DNA 1: CAATCTGAATTCCGGTCTCCC
DNA 2: TGGTGGCTACGACGGGATT
B27: GUCUGGG (DNA:RNA)
RNA: B3 RNA with U25G, G27C, C28U
DNA 1: CAATCTGAATTCCGGTCTCCC
DNA 2: TGGTGGCTACGACGGGATT
B28: CGCGAGC (DNA:RNA)
RNA: B1 RNA with A26G, A30G
DNA 1: CAATCTGAATTCCGGTCTCCC
DNA 2: TGGTGGCTACGACGGGATT
B29: AGACCGG (DNA:RNA)
RNA: B3 RNA with U25A, U26G, G27A, G29C
DNA 1: CAATCTGAATTCCGGTCTCCC
DNA 2: TGGTGGCTACGACGGGATT
B30: CAAAUUA (DNA:RNA)
RNA: B1 RNA with C27A, G28A, A29U, A30U, C31A
DNA 1: CAATCTGAATTCCGGTCTCCC
DNA 2: TGGTGGCTACGACGGGATT
B31: CGCUAGA (DNA:RNA)
RNA: B1 RNA with A26G, G28U, A30G, C31A
DNA 1: CAATCTGAATTCCGGTCTCCC
DNA 2: TGGTGGCTACGACGGGATT

The binders below were run against T1, RBFOX1 RRM (assay: EMSA; HiTS-Eq, 1 nM pool, 10 min; buffer printed only for the single-RNA assays: 10 mM Tris pH 7.5, 150 mM NaCl, 3.4 mM EDTA, 0.001% NP-40, 30 C). Details: tags: His6 N-terminal (pET28a); label: 5' 32P.
Method in brief: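 Purified RbFox RRM (wild type or mutant) was equilibrated for 10 min in 50 µL with 1 nM of a 5′-radiolabelled pool of RNA with 7 randomized nucleotides, its flanks annealed to DNA oligonucleotides, across increasing protein concentrations. Free RNA was separated by 8% native PAGE, excised, reverse-transcribed, PCR-barcoded and sequenced on an Illumina HiSeq 2500. Relative association constants came from read-count changes of each variant against the control reaction, normalised to the cognate motif.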

How did the binding signal turn out when B1 was run?
The binding signal was 0.00466 KA relative to UGCAUGU.

How did the binding signal turn out when B2 was run?
The binding signal was 0.00747 KA relative to UGCAUGU.

B3 was tested. Which binding signal did it give?
The binding signal was 0.0126 KA relative to UGCAUGU.

With B4 as the binder, how does the binding signal read?
Its binding signal is 0.00518 KA relative to UGCAUGU.

How did the binding signal turn out when B5 was run?
Its binding signal is 0.014 KA relative to UGCAUGU.

For B6, which binding signal is on record?
Its binding signal is 0.00764 KA relative to UGCAUGU.

For B7, which binding signal is on record?
The binding signal was 0.0173 KA relative to UGCAUGU.

For B8, which binding signal is on record?
Its binding signal is 0.0222 KA relative to UGCAUGU.

With B9 as the binder, how does the binding signal read?
Its binding signal is 0.00947 KA relative to UGCAUGU.

For B10, which binding signal is on record?
Its binding signal is 0.00449 KA relative to UGCAUGU.

With B11 as the binder, how does the binding signal read?
Its binding signal is 0.0252 KA relative to UGCAUGU.

Which binding signal does the source give for B12 here?
The binding signal was 0.0108 KA relative to UGCAUGU.

B13 was tested. Which binding signal did it give?
The binding signal was 0.00279 KA relative to UGCAUGU.

For B14, which binding signal is on record?
Its binding signal is 0.00664 KA relative to UGCAUGU.

For B15, which binding signal is on record?
Its binding signal is 0.00141 KA relative to UGCAUGU.

How did the binding signal turn out when B16 was run?
Its binding signal is 0.0286 KA relative to UGCAUGU.

With B17 as the binder, how does the binding signal read?
Its binding signal is 0.00174 KA relative to UGCAUGU.

How did the binding signal turn out when B18 was run?
Its binding signal is 0.0151 KA relative to UGCAUGU.

Which binding signal does the source give for B19 here?
Its binding signal is 0.0182 KA relative to UGCAUGU.

How did the binding signal turn out when B20 was run?
Its binding signal is 0.0146 KA relative to UGCAUGU.

How did the binding signal turn out when B21 was run?
The binding signal was 0.0138 KA relative to UGCAUGU.

With B22 as the binder, how does the binding signal read?
The binding signal was 0.00383 KA relative to UGCAUGU.

How did the binding signal turn out when B23 was run?
The binding signal was 0.00909 KA relative to UGCAUGU.

With B24 as the binder, how does the binding signal read?
Its binding signal is 0.00188 KA relative to UGCAUGU.

For B25, which binding signal is on record?
The binding signal was 0.00989 KA relative to UGCAUGU.

How did the binding signal turn out when B26 was run?
Its binding signal is 0.00145 KA relative to UGCAUGU.

With B27 as the binder, how does the binding signal read?
The binding signal was 0.0145 KA relative to UGCAUGU.

B28 was tested. Which binding signal did it give?
The binding signal was 0.0185 KA relative to UGCAUGU.

Which binding signal does the source give for B29 here?
The binding signal was 0.00774 KA relative to UGCAUGU.

How did the binding signal turn out when B30 was run?
Its binding signal is 0.000328 KA relative to UGCAUGU.

For B31, which binding signal is on record?
Its binding signal is 0.0141 KA relative to UGCAUGU.
